± gives the standard deviation of the averaged measurements. The list shows a part of the results.
Test system: PfAP2-I AP2 domain 3 (GST-tagged)
Assay: gcPBM binding intensity (ln(normalized median fluorescence intensity)); higher = stronger DNA binding
Method in brief: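 Each value is the highest Masliner-normalised natural-log median intensity across replicate spots of either orientation of a probe. The probes were primer-extended double-stranded 36-bp intergenic genomic sequences on an Agilent 4 × 180k array, alongside negative controls, exposed for 1 h to GST-tagged P. falciparum DNA-binding domains expressed in E. coli. Bound protein was picked up with Alexa488 anti-GST antibody and scanned at 488 nm.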

Point of comparison: “ATGATTTGTCTGAAATGTACATATATATATATATAT [XGTACX_site5247]”, “gcPBM binding intensity (ln)” value 9.21 ± 0.33. Against it:
- TATATATAAGCGTGTACACATTCTGAGTGTTGTATA [CACACA_site4502] — lower, 8.09 ± 0.45
- AATACATTGTCAAATTGTACAAATTATAGAACTATT [XGTACX_site2222] — lower, 7.68 ± 0.52
- CCATAAAAAGGATACACACACACACCCACATATATA [CACACA_site903] — lower, 8.02 ± 0.24
- TGTTTTTATATATATGCACACAATGTACAAGTATAC [CACACA_site3529] — within error, 9.52 ± 0.028
- TATGTGAATATAATCACACACAATACGGAAACCCAC [CACACA_site2725] — lower, 8.36 ± 0.22
- AAAGTCTCATTAAAATGTACAAAATTTTCAGCTGTA [XGTACX_site6296] — lower, 7.32 ± 0.62
- TTATATATAAACATAAAAAGAAATATATTATGTATA [CACACA_negctrl_site667] — lower, 7.3 ± 0.54
- TAATTTTTAATTGTAGCATGCAGTATTTTTAAATAT [TGCATGCA_site140] — lower, 7.75 ± 0.65
- AAAGGGGCATATATATGTACATATTATATATTTTGA [XGTACX_site2436] — lower, 8.44 ± 0.092
- ATTATCCATGCATTTACACACACACCCAAAAAAATT [CACACA_site4101] — within error, 8.82 ± 0.44
- TTTTTTTTTTTTTGTGCATGTAGATTTATTGTTATA [TGCATGCA_site582] — within error, 8.51 ± 0.47
- TTTAAATATATATTTAGTACTTATTCTTAAAATTTT [XGTACX_site624] — lower, 7.66 ± 0.45
- AAAAAAGAATAGCACACACACATATATAAATATAAA [CACACA_site4518] — lower, 8.175 ± 0.078
- GTTACATACAGATACACACACATATATATATATATA [CACACA_site4652] — within error, 9.48 ± 0.66
- GTAGAGGATTAAGAATGTACACATAAATACATATTT [XGTACX_site8874] — lower, 7.79 ± 0.47
- AATTATACATACATATATATATTTATATATATATAT [GTGCAC_negctrl_site462] — within error, 8.8 ± 0.35
- AAAAAAAAATATATATAAAATTAAAAAATGTAATAT [GTGCAC_negctrl_site581] — lower, 7.45 ± 0.64
- ATTAAAAAAAAAAGTATACACACTTCTTAATGTCAA [CACACA_site1244] — lower, 7.39 ± 0.47
- TTATATCCCGTCCTTTATTAAAAAAATTTTTTTTCT [TGCATGCA_negctrl_site582] — lower, 8.09 ± 0.62
- ATGGGTTGTTCAAATAGTACATATGTAGCCCACCAT [XGTACX_site3735] — within error, 8.34 ± 0.62
- AAATATTATGTGGCAAGTACATAAAGAAAATGCTTA [XGTACX_site3356] — lower, 7.67 ± 0.43
- ATAATAAGGTTAAGCACACATATTACAGATATAACT [CACACA_site5791] — lower, 8.41 ± 0.26
- AATAATAATAATAATAGTACATATTATGAATATGAT [XGTACX_site5730] — lower, 7.73 ± 0.14
- TTAAAAATGATTGAATGTACAGATTAATATAATTTT [XGTACX_site7394] — lower, 7.51 ± 0.58
- GATCTACATGAAAGGACACACAAATATATATATATA [CACACA_site84] — within error, 9.32 ± 0.17
- ATAAATATGGAGCACACACACATAAACATACCTATA [CACACA_site6336] — lower, 8.39 ± 0.17
- TAATTTTTGAAACACACACACATATATATATATATA [CACACA_site94] — within error, 9.31 ± 0.42
- ATTATTTTTTTATGTTGTACATAATATTTTTTAAAA [XGTACX_site1666] — lower, 7.92 ± 0.3
- TTCCAACATTGTTTTTGTACATAATTAACTGTTATT [XGTACX_site5224] — lower, 7.88 ± 0.57
- CTTAAAAATAACTGCACACAAAAATAAATACCTTAT [CACACA_site2793] — within error, 9.28 ± 0.3
- TAATATTTATAAAATAGTACACAGAAAAAGCATTTT [XGTACX_site8948] — lower, 7.95 ± 0.5
- ATATATATGGATGGACGTACGTATGTATGTAATTTC [XGTACX_site4135] — within error, 8.26 ± 0.77
- ATATATATTTTATTATGTACATATAAATATTACACA [XGTACX_site4062] — lower, 8 ± 0.35
- GAAAAAATATATAAATGTACATATAATAATATCATA [XGTACX_site6788] — lower, 7.61 ± 0.38
- TCGTATATGGATTTTGCACACAATTTTAATTTAAAT [CACACA_site4635] — within error, 9.52 ± 0.071
- AACAAATAAACAAAATTGGAAAATAAAAATATCAAA [CACACA_negctrl_site1125] — lower, 7.46 ± 0.66
- TAATAATTTTATAAAGTGCATAAAAATAAAAATTTT — higher, 10.6 ± 0.36
- TTTTTTTTTTTTTTAATTAATTACCTTTGAATGTGT [CACACA_negctrl_site393] — lower, 7.84 ± 0.59
- TTAAATAGAAATAAGACTAACAATGAACCAAAAAAA [CACACA_negctrl_site991] — lower, 7.89 ± 0.63
- TTTTGAAAAAGTTGCACACAAAATTTAAAAAAAAAA [CACACA_site1632] — lower, 8.44 ± 0.38
- ATATATATATATATATATATAATTTTTTTTGTTTTT [TGCATGCA_negctrl_site453] — within error, 9.66 ± 0.34
- TATATTATTAATTAGGGTACAAAAAAAAAATTTTTT [XGTACX_site7762] — lower, 7.99 ± 0.61
- GATATCAAAAAGATGGGTACATATATTTAAGTTCAT [XGTACX_site3822] — lower, 7.71 ± 0.67

Source: the supplement of paper PMC11417369
